Source: article PMC11152714 (The Journal of Biological Chemistry, 2024)

Biological target: T1, sYeGT (Yersinia enterocolitica, UniProt A0AAT8XUD0)
T1 construct: YeGT shortened by 16 N-terminal residues (printed as 279 residues, but 313-16 = 297); E. coli expression, His tag removed by TEV leaving Gly-Ser-Met (crystals)
Assay: X-ray crystal structure, […] A
Format: binding
Conditions: Mn2+; pH 7.5; crystallised with UDP-GlcNAc, which was hydrolysed; partial Cd2+ on the diphosphate

O=c1ccn([C@@H]2O[C@H](COP(=O)(O)OP(=O)(O)O)[C@@H](O)[C@H]2O)c(=O)[nH]1 [UDP]
X-ray crystal structure, 1.12 A: only the UDP moiety was visible in the electron density map
